Results as given in patent US20130039912A1 (Sanofi, published 2013).

Legend:
Slit2-D2 [1] = target: T1, Slit2-D2 (human); experiment: SPR, Slit2-D2 on CM5 chip, two-phase Scatchard model, high-affinity site
T1 construct: Used purified (ELISA, SPR) and expressed by transient transfection of pXL4911 in HEK293 cells (FACS); also called human Slit2-D2 protein; D2 domain of human Slit2
T1 chain: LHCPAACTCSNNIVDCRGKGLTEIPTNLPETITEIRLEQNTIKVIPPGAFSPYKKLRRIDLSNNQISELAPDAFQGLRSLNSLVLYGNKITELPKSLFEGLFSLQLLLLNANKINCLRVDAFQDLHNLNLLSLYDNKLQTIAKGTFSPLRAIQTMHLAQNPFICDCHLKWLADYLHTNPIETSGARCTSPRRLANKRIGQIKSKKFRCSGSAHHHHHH
Procedure: A second method, which consists in determining the affinity constant between the Robo1-Fc L1 fusion protein and the human Slit2 protein, was analysed after having bound the Slit2-D2 protein to the CM5 chip. The kinetic measurements are carried out according to the protocol of Canziani eta((2004. Anal. Biochem. 325: 301-307) using the Scatchard method according to a model with two non-equivalent binding sites, […]

Slit2-D2 [2] = target: T1, Slit2-D2; experiment: ELISA, Slit2-D2 coated, Robo1-Fc titrated, anti-human IgG-HRP
Procedure: The D2 domain of the human Slit variants was bound to Immulon-4 enzyme-linked plates (VWR Scientific Inc. Swedesboro, N.J.). A concentration range (from 1 μg/mL to 0.001 μg/mL) of the Robo1-Fc L1 fusion protein was added and than detected using the peroxidase-conjugated goat anti-human IgG antibody (Sigma; ref. A0170, dilution to 1:50 000). Visualization was carried out with the TMB-H₂O₂ substrate (Interchim; ref UP664780) and the measurements were carried out with a plate reader at 450 nm. Similarly, the Robo1-Fc Slit2-minus variant, which is mutated at the level of the Slit2-binding site, was evaluated according to a concentration range (from 20 μg/mL to 0.02 μg/mL) by ELISA assay under the same conditions described above.

Slit2-N = target: T2, Slit2-N (human, UniProt O94813 31-1121); experiment: FACS on HEK293 cells transiently expressing Slit2-N
T2 construct: In the FACS assay expressed by transient transfection of pXL5033 in HEK293 cells
T2 sequence: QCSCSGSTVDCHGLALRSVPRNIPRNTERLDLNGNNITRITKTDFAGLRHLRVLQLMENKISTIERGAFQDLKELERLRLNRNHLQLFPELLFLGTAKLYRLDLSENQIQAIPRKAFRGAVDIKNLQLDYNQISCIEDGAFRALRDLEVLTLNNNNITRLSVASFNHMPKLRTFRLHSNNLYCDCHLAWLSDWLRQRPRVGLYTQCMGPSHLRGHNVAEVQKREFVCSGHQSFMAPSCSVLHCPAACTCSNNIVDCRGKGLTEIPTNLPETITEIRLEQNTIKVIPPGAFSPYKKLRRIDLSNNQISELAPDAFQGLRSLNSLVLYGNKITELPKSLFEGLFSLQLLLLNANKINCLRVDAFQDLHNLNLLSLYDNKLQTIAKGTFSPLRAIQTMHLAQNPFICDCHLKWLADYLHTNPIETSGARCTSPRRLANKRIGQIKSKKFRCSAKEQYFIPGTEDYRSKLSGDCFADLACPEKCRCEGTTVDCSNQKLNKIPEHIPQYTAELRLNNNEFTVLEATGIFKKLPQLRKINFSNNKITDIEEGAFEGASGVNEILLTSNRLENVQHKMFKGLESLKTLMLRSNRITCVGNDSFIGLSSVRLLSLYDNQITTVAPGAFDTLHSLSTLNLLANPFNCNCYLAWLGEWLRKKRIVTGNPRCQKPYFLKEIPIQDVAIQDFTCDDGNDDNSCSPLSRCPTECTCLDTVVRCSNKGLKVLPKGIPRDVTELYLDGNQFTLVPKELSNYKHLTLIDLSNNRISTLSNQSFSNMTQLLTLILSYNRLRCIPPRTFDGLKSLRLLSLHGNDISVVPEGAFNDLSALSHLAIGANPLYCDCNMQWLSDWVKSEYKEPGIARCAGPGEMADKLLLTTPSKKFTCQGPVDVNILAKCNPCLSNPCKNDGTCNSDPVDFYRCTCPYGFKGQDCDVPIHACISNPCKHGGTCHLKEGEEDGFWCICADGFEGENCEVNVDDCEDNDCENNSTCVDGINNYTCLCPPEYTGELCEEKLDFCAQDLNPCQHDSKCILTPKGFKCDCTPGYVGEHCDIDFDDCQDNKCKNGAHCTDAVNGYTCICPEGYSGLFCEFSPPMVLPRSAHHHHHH
Procedure: The HEK293 cells described and used as in example 1 were transfected either with a ballast plasmid, having no cDNA that encodes in the mammalian cell, or the pXL4911 plasmid encoding the Slit2-D2 protein, or the pXL4912 plasmid encoding the Slit2-D1D2 protein, or pXL5033 encoding the Slit2-N protein described in example 2, The cells were distributed into 96-well plates 48 hours post-transfection, and the Robo1-Fc protein was added in a concentration range of from 0.01 to 3 mg/L for 30 min at 4° C. The Robo1-Fc protein is either the Robo1-Fc L1 biotherapeutic agent, or the Robo1-Fc Slit2-minus mutant, or the Robo1-Fc heparin-minus mutant. The cells were washed and the anti-human Fc antibody labelled with Alexa 488 (ref: A-11013, Invitrogen) was incubated for 30 min at 4° C. The labelled HEK293 cells are then quantified by FACS (Geomean).

- Kd (Slit2-D2 [1]): 1.5 nM
- EC50 (Slit2-D2 [2]): 0.132 µg/mL
- Kd (Slit2-N): 1.2 nM
B1: Robo1-Fc L1 (Fc fusion)
chain: SRLRQEDFPPRIVEHPSDLIVSKGEPATLNCKAEGRPTPTIEWYKGGERVETDKDDPRSHRMLLPSGSLFFLRIVHGRKSRPDEGVYVCVARNYLGEAVSHNASLEVAILRDDFRQNPSDVMVAVGEPAVMECQPPRGHPEPTISWKKDGSPLDDKDERITIRGGKLMITYTRKSDAGKYVCVGTNMVGERESEVAELTVLERPSFV[here human IgG4 Fc with changes without letters]
notes: also called Robo-Fc L1; Robo1-Fc L1 biotherapeutic agent
